Publication PMC12136788
Some of the results follow.

T1: UNK ZnF1-3 (human, UniProt Q9C0B0 31-174)
T1 sequence: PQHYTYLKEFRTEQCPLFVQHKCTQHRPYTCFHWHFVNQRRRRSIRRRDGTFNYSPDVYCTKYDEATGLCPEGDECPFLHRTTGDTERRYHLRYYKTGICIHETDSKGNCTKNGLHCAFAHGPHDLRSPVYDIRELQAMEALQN

B1: chr2:173053163:173053164:-_ENSMUSG00000038400_ENSMUST00000036248|mus_mus|FALSE|FALSE (ssRNA)
RNA: GGGAGUUCUACAGUCCGACGAUCGAGCUUCUGCAUUCAGACCACACAGAACAUGUAAAUAUUUAUACACAGACAGGAGAACUACCACACGGCCACUCAGCCUGUGUGUCCCCUGACUUCCUCUCUCUUCUCUCUUAAGAAGUGCAACAGAGGAUUGAGCAUCA
B2: chr14:20710596:20710597:-_ENSMUSG00000043004_ENSMUST00000160013|mus_hu|FALSE|FALSE (ssRNA)
RNA: GGGAGUUCUACAGUCCGACGAUCAUCCUGUCGAUAUUGGCUUCCAUCUUAAGCUGCUCUACCAGCUUCCUGGCUUGUGCUAUGCUGGCGGUGUUGUUGCUGGCCAUCGGAGUGCUGGAUAGAUCUUUCAGAAACACUCUUCAGCAACAGAGGAUUGAGCAUCA
B3: 139369022_139369142_3059_CDS_ENSG00000148396_ENST00000313050|human|control|control (ssRNA)
RNA: GGGAGUUCUACAGUCCGACGAUCGUCAGAAUGGGACGGGUUGUACACGUUUACAGGAUUUUCCAAAGUCCUGCUUAAGGUAAAGUCUAGGGCUCCGUAAGUGUCUUCCUGAUGACUGGAAUGGUUUGCCUUAUUACCAUCAGGCAACAGAGGAUUGAGCAUCA
B4: chr16:11966626:11966627:-_ENSG00000103342_ENST00000563468|hu_mus|FALSE|FALSE (ssRNA)
RNA: GGGAGUUCUACAGUCCGACGAUCUUUUAACAUGUGCAGACACACUCCCACACUCAGAAUCAUCUGCCUGGGGGAAAAAGACUAACUAUGCCUAAGAAGAAAAUGAAAAAUAAAAAAAUUCCUGUAGGUUUUCAUUAUUGUAGGCAACAGAGGAUUGAGCAUCA
B5: chr1:157160411:157160412:-_ENSMUSG00000026469_ENSMUST00000027741|mus_hu|FALSE|FALSE (ssRNA)
RNA: GGGAGUUCUACAGUCCGACGAUCGAAUUCAAUCAGAAGAAAGCCACCCCGAUAGAUUCUUAUCAAGGGCCAUAUACUUCUAUCUGUUUCAAGUUUAAAUACAGCGGCAAGCACAAGGGUAAUAUUCAGUACAAUGAAUAUUCCCAACAGAGGAUUGAGCAUCA
B6: chr10:7461220:7461221:+_ENSMUSG00000019794_ENSMUST00000165806|mus_mus|motif|central (ssRNA)
RNA: GGGAGUUCUACAGUCCGACGAUCGACUUCUCCUUCAGCAGCUGGAAAUUCAUGUUGUGCAGCUUGCAAAGAAGUGAUGUCGGGUUUGAAGCUCUCGAGUGUUUUCAUGAUAUCCUUAACUUGCUUAGCUUCCACAUUUAUUUCCAACAGAGGAUUGAGCAUCA
B7: chr2:27436100:27436101:+_ENSG00000138085_ENST00000606999|hu_mus|FALSE|FALSE (ssRNA)
RNA: GGGAGUUCUACAGUCCGACGAUCGAUGGUGCCCUUCUGAUUCAGGCAGCAUCGGGCCUGCAUUAGCUUCGAUGUAUCCUCACAGUAAGCAGCCACUCUGGACAAAUUGUGCAUACCUCCCGGACACAGGGUGCAUAUCUCAGGCAACAGAGGAUUGAGCAUCA
B8: chr9:111179681:111179682:+_ENSMUSG00000046785_ENSMUST00000060711|mus_mus|motif|central (ssRNA)
RNA: GGGAGUUCUACAGUCCGACGAUCGGACUUAACACUAGAGAGCUGAUUUUUGAGUACACCUAGGUUUGAAUCUUGACAUUACGGCGGGUUUACUAGGGUAAAUUACAGUCUGUUUUCUUAACAACAUUCACAUAAUAUUUGAACCAACAGAGGAUUGAGCAUCA
B9: chr19:33076771:33076772:+_ENSG00000105185_ENST00000590247|hu_hu|FALSE|FALSE (ssRNA)
RNA: GGGAGUUCUACAGUCCGACGAUCUGCCAUCUGUAUAAGGUAAUUCUCUACUGCUUUAGUUUUUUCAGGCUUUACAAGUGCUAAGUUACUUAACCUGGCCCGGGCCGACUGAUCCAGAACUUGGGCUAAGAUACUGUUUCUCAUCAACAGAGGAUUGAGCAUCA
B10: chr10:33190432:33190433:-_ENSG00000150093_ENST00000302278|hu_mus|hu_hu_hu_mus_True|68_88 (ssRNA)
RNA: GGGAGUUCUACAGUCCGACGAUCUACAUUUUCCAAACCUGCAUGUGAGUAAAACCAUGGCCACAGAGCCCUAAAGCUACCCUACUGUGACUAAGAUGCUGCUGCUGUGAGCUUGGUGUUGCAAAAUCCGCCUGAGUAGGAUUCCAACAGAGGAUUGAGCAUCA
B11: chr16:94690093:94690094:+_ENSMUSG00000040785_ENSMUST00000117648|mus_hu|mus_mus_mus_hu_True|58_98 (ssRNA)
RNA: GGGAGUUCUACAGUCCGACGAUCGGGCUGGGAUGACAGCAGACAGCCCUCGAUUCCAGGGGGAAAAAGUCUUAGUCAAUACUAAUUAAAAAGUGUUAAUGAUUUUUGAAAAUCAGAUUACAUCUAUAAAAGAUGAAAAGCAAACAACAGAGGAUUGAGCAUCA
B12: chr5:152452566:152452567:-_ENSMUSG00000033970_ENSMUST00000038131|mus_hu|motif|central (ssRNA)
RNA: GGGAGUUCUACAGUCCGACGAUCUUCACGUAGAAUACACAUAAUUCUUGUCUUUUUUCCAGCACCUGAUGGUCCGUACACGGACAGAUGAGGAAAGUCACCACACUGCACCAGGUUCCGCAGCUGGGCCGCCUGCUCCUUGUGCAACAGAGGAUUGAGCAUCA
B13: chr1:39494447:39494448:+_ENSG00000168653_ENST00000372967|hu_mus|hu_hu_hu_mus_False|1_78 (ssRNA)
RNA: GGGAGUUCUACAGUCCGACGAUCGCACCGAGCGGCGUUCUUAUAGGGCUGUUCUGCACUCUGGAUUAUAAAGUGCCGGUCCAGGCUGAUGCCCAGCUUUUUCUGUAUGUCAAGGAAAGGCAUGGCUCUGCAGUGCCCCCUUGACAACAGAGGAUUGAGCAUCA
B14: chr16:22092171:22092172:+_ENSG00000185716_ENST00000542527|hu_mus|FALSE|FALSE (ssRNA)
RNA: GGGAGUUCUACAGUCCGACGAUCCCGUUUAGACAUUCGUCAGCCUGGUAAACAGACUUUGCCAGCAAACAGAAGUCCUACUAUUGUGAAGAAAAUCGAUAAGACAAAAAGUACAUAUGAUGACCCAACUACUGUGUUGUUGGGCAACAGAGGAUUGAGCAUCA
B15: chr8:117878989:117878990:-_ENSG00000164754_ENST00000297338|hu_hu|hu_hu_hu_mus_True|8_38 (ssRNA)
RNA: GGGAGUUCUACAGUCCGACGAUCCCAGAGGCCCUCGUUUACUGAGGACAAAAUGUGCGUAGAACAUUUUUCUUAUUUGCUAUGAAAUAAGAAGAAAACCUUGCUCUGGCGGGGAGCCGGGAGGGGUUGGGUGGCCCGGGAGGGCAACAGAGGAUUGAGCAUCA
B16: 34873808_34873928_1232_3pUTR_ENSMUSG00000037503_ENSMUST00000047534|mouse|control|control (ssRNA)
RNA: GGGAGUUCUACAGUCCGACGAUCUCCCUUGUACAAGUGUAACUGAGGCUCAGCGUACAUCGCAGAGGUGCGUGAGGGACAGGACAGGCUGUGAACGUGGUCCAGUCCUUCGGGUUUUGCAUAUGAUGGUUUUGCAUCAGUCACCAACAGAGGAUUGAGCAUCA
B17: chr7:7679991:7679992:-_ENSG00000106399_ENST00000396682|hu_hu|hu_hu_hu_mus_False|38_58 (ssRNA)
RNA: GGGAGUUCUACAGUCCGACGAUCUGGGAUGAAUCUUUUCCAGCUUCCCCACGAAGCACACGGGCCGGUCGAUAUACUGAGCUAGCAUGCUGGCGUUGAUGCGCGACUUGGGGAGCUGCAUUAUGUCCUCCAUGAUUCUGCCGCCAACAGAGGAUUGAGCAUCA
B18: chr7:133502204:133502205:+_ENSG00000131558_ENST00000253861|hu_mus|FALSE|FALSE (ssRNA)
RNA: GGGAGUUCUACAGUCCGACGAUCGGUGUCUGCAUUAGCCAGGAUCUUCAAGGGGUCUGAGGUUUUGGUGACGCCUUCAAUCUCCUUGUUGAUCUCAGCCAAGACCUGAUUAAGGAAGAUGCUCUUGAUAUACACGGUAAGAAACAACAGAGGAUUGAGCAUCA
B19: chr2:217001844:217001845:+_ENSG00000079246_ENST00000392132|hu_hu|hu_hu_hu_mus_False|58_58 (ssRNA)
RNA: GGGAGUUCUACAGUCCGACGAUCACCAACUUGAGGAUUAGAUCUUUUGUCAUAAGCAUAUCGGACGAUGGCGACCAUGUCUAAGUCAUCCAAAGCAUGAACGAGAGAGGAAAGGGCAACAGCUGCCGCCUCAUCAUCCUUUGCCAACAGAGGAUUGAGCAUCA
B20: chr13:22070289:22070290:-_ENSG00000165487_ENST00000382374|hu_mus|FALSE|FALSE (ssRNA)
RNA: GGGAGUUCUACAGUCCGACGAUCAGCAAAGUCUUCCAAAUGCGUUGUAAAAUGGCAAAAGGACUUGAACUCAUCCAAACUAAUGCUCUCUCCUACUGACAACUUUUCUCUCACGUUUCUCCAGUAAAUAUCUUUAUUUUCAGUCAACAGAGGAUUGAGCAUCA
B21: chr10:33190432:33190433:-_ENSG00000150093_ENST00000302278|hu_mus|hu_hu_hu_mus_True|38_98 (ssRNA)
RNA: GGGAGUUCUACAGUCCGACGAUCUACAUUUUCCAAACCUGCACAUGAAUAAAACCCUGGCCACAGAGCCCCAAAACUACCCUACUGUGACUAAGAUAAUUGCUACUUGAGCUUGGUGUUGCAAAAUCCGCCUGAGUAGGAUUCCAACAGAGGAUUGAGCAUCA
B22: chr2:42509997:42509998:+_ENSG00000143924_ENST00000318522|hu_mus|hu_hu_hu_mus_True|48_78 (ssRNA)
RNA: GGGAGUUCUACAGUCCGACGAUCUCGCUGAGUCCUCUCCUCAUAAUUAAACAGGACUACUACUGAUGCGAUAAAAUAAACUAUCUCCCCGGUCGGAAGCAGGUAUACAUUCGCUCUACAGUCCUUUCCUCGAUAACCGUAUACCAACAGAGGAUUGAGCAUCA

biological target: T1, UNK ZnF1-3; test: nsRBNS (natural sequence RNA bind-n-seq); RBNS binding buffer (assumed for nsRBNS): 25 mM Tris pH 7.5, 150 mM KCl, 3 mM MgCl2, 0.01% Triton X-100, 500 ug/ml BSA, 20 U/ml SUPERase-In, 4 C; UNK is unkempt and MSI1 is Musashi-1; names of the RNAs are library labels; protein concentration not given here; high values mean tight binding

| Binder | binding signal |
| --- | --- |
| B1 | 0.911 enrichment R |
| B2 | 0.576 enrichment R |
| B3 | 0.675 enrichment R |
| B4 | 2.1 enrichment R |
| B5 | 1.1 enrichment R |
| B6 | 0.663 enrichment R |
| B7 | 0.994 enrichment R |
| B8 | 0.909 enrichment R |
| B9 | 0.932 enrichment R |
| B10 | 0.878 enrichment R |
| B11 | 1.46 enrichment R |
| B12 | 0.708 enrichment R |
| B13 | 0.745 enrichment R |
| B14 | 0.721 enrichment R |
| B15 | 1.24 enrichment R |
| B16 | 0.766 enrichment R |
| B17 | 0.572 enrichment R |
| B18 | 0.626 enrichment R |
| B19 | 2.11 enrichment R |
| B20 | 1.49 enrichment R |
| B21 | 0.98 enrichment R |
| B22 | 1.19 enrichment R |
